Read-outs that look alike come from different tables or passages of the source.
Assays:
[1] = Pharmacokinetics in mouse plasma; type: in vivo, male BALB/c mice; conditions: for Cmax: read-out: C0/Cmax
[2] = tested on: KPC-p53^R270H pancreatic tumors; test: KPC efficacy / survival study, p53^R270H; type: in vivo, KPC mice; conditions: 5 mg/kg IP daily
[3] = Acute toxicity / maximum tolerated dose; type: in vivo, mice
[4] = tested on: K8484 subcutaneous tumors; test: K8484 subcutaneous tumor model, bolus versus continuous infusion; type: in vivo, nude mice; conditions: 1 μM/24 hr by pump versus 1 μM bolus daily (legend: 1 mg/kg), p = 0.35
TOV112D parental cells = test: Cell growth inhibition / viability, TOV112D parental cells; type: cell-based; conditions: cell growth inhibition assay, TOV112D

Row | Compound | AUCinf ([1]; i.v. 2 mg/kg, mouse plasma) [µM·h] | AUClast ([1]; i.v. 2 mg/kg, mouse plasma) [µM·h] | CL ([1]; i.v. 2 mg/kg, mouse plasma) [mL/min/kg] | T1/2 ([1]; i.v. 2 mg/kg, mouse plasma) [min] | Vss ([1]; i.v. 2 mg/kg, mouse plasma) [L/kg] | %F ([1]; p.o. 10 mg/kg versus i.v. 2 mg/kg, one value printed on both lines) [%] | AUClast ([1]; p.o. 10 mg/kg, mouse plasma) [µM·h] | Tmax ([1]; p.o. 10 mg/kg, mouse plasma) [min] | Cmax ([1]; i.v. 2 mg/kg, mouse plasma) [µM] | Cmax ([1]; p.o. 10 mg/kg, mouse plasma) [µM] | mice with tumor regressions by ultrasound [2] | median survival ([2]; vehicle 14 days) [days] | observed toxicity ([3]; 10 mg/kg) | tumor growth, continuous intravenous pump versus intravenous bolus daily [4] | cell kill (TOV112D parental cells) [%] | well tolerated dose ([3]; acute single dose exposure) | weight loss ([3]; acute single dose up to 15 mg/kg)
1 | C/C(=N\NC(=S)N1CCC1)c1ccccn1 [ZMC1] | 0.405 | 0.385 | 351 | 35.4 | 9.8 | 79 | 1.527 | 15 | 2.43 | 4.56 | 2/8 | 10 | seizure-like activity and hypothermia | no significant difference |  |  | 
2 | [Zn(ZMC1)2] [Zn-1] |  |  |  |  |  |  |  |  |  |  |  |  |  |  | ~100 | up to 15 mg/kg | without significant weight loss

Reference: PMC6139040 (Clinical cancer research : an official journal of the …, 2018)
